Several values for one entry are separate records, joined by “and”; a condition that tells them apart may be missing. Identical values can stand only once.
Tests used:
[1] = system: TOV112D MT2A/MT1A KO cells; assay: Cell growth inhibition; type: cell-based; conditions: read-out: EC50 cell growth inhibition; MT1A/MT2A knockout, 72 hours, Calcein-AM
[2] = system: 270H (p53^R270H/+); assay: Cell growth inhibition; type: cell-based, murine; conditions: 72 hours, MTS
[3] = system: TOV112D cells; assay: Colony formation; type: cell-based; conditions: 0.01 μM
[4] = system: TOV112D cells (p53^R175H); assay: p21 / p53 western blot time course, TOV112D; type: cell-based; conditions: 1 μM ZMC1, loss of activity by 24 hours
[5] = system: K8484 cells; assay: p21 western blot time course, K8484; type: cell-based, murine; conditions: 1 μM ZMC1, baseline by 24 hrs
[6] = Pharmacokinetics in mouse plasma; type: in vivo, male BALB/c mice; conditions: 2 mg/kg IV, plasma
[7] = system: TOV112D parental cells; assay: Cell growth inhibition / viability, TOV112D parental cells; type: cell-based; conditions: read-out: EC50 cell growth inhibition; parental cells, 72 hours, Calcein-AM
[8] = system: K8483 (p53^−/−); assay: Cell growth inhibition; type: cell-based, murine; conditions: 72 hours, MTS
[9] = system: TOV112D MT2A/MT1A KO cells; assay: 24-hr cell growth, crystal violet, MT1A/MT2A KO cells; type: cell-based; conditions: 1 μM ZMC1, 24 hours
[10] = system: TOV112D parental cells; assay: 24-hr cell growth, crystal violet, parental cells; type: cell-based; conditions: 1 μM ZMC1, 24 hours
[11] = system: TOV112D cells (p53^R175H); assay: Intracellular free zinc concentration, FluoZin-3 imaging; type: cell-based; conditions: 1 μM ZMC1, peak by four hours, baseline by 8 hours
[12] = Acute toxicity / maximum tolerated dose; type: in vivo, mice; conditions: 5 mg/kg IP

SMILES: C/C(=N\NC(=S)N1CCC1)c1ccccn1 [ZMC1]
- EC50 [1]: 22.9 nM
- EC50 cell growth inhibition [2]: could not reach an EC50
- exposure time sufficient to reduce colonies [3]: at least 15 minutes
- number of colonies by day 14 ([3]; exposure of less than 30 minutes, then 14 days drug-free): significantly reduce the number of colonies
- time of maximal activation (p21 up, mutant p53 down) [4]: 6 to 8 h
- time of peak in p21 [5]: 8 h
- AUClast [6]: 0.385 µM·h
- half life [6]: 35.4 min
- Cmax ([6]; read-out: maximum concentration (Cmax)): 2400 nM
- EC50 [7]: 69.1 nM and 69 nM
- EC50 cell growth inhibition [8]: could not reach an EC50
- reduction in cell growth of KO cells compared to parental cells [9]: 45%
- cell growth normalized with vehicle control ([9]; crystal violet): 19%
- cell growth normalized with vehicle control [10]: 42%
- peak intracellular free zinc level [11]: 15 nM
- weight loss [12]: no significant weight loss

Reference: PMC6139040 (Clinical cancer research : an official journal of the …, 2018)
